Data from PubChem BioAssay AID1745853 (National Center for Advancing Translational Sciences (NCATS), 2022).
“And” between values parts separate entries of the source, which are not always exact repeats. Equal values may be shown once. Some of the results follow. The main result of the screen is listed elsewhere. These columns were measured beside it and carry no call.

Experiments:
Assay in all cases: Primary Screen for Target Class Profiling of Small Molecule Inhibitors of Methyltransferases
[1] = target: Glycine N-methyltransferase (Homo sapiens) (UniProt Q14749); details: purified enzyme, MTase-Glo SAH luminescence; measured here: GNMT inhibition; at 40 µM; stronger effect = lower value
Method in brief: (§1)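 Each enzyme was reacted with SAM and its substrate, with compounds tested once at 40 uM; SAH formed was read by MTase-Glo luminescence.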

[2] = target: Guanidinoacetate N-methyltransferase (Homo sapiens) (UniProt Q14353); details: purified enzyme, MTase-Glo SAH luminescence; measured here: GAMT inhibition; at 40 µM; stronger effect = lower value
Method in brief: as §1

[3] = target: Histamine N-methyltransferase (Homo sapiens) (UniProt P50135); details: purified enzyme, MTase-Glo SAH luminescence; measured here: HNMT inhibition; at 40 µM; stronger effect = lower value
Method in brief: as §1

[4] = target: Nicotinamide N-methyltransferase (Homo sapiens) (UniProt P40261); details: purified enzyme, MTase-Glo SAH luminescence; measured here: NNMT inhibition; at 40 µM; stronger effect = lower value
Method in brief: as §1

[5] = target: Phenylethanolamine N-methyltransferase (Homo sapiens) (UniProt P11086); details: purified enzyme, MTase-Glo SAH luminescence; measured here: PNMT inhibition; at 40 µM; stronger effect = lower value
Method in brief: as §1
% is scaled to controls: 0 for no effect and ±100 for the full control effect.

## CCC(C(=O)NCc1cccc(OC)c1)n1ccc2cc(S(=O)(=O)N3CCCCC3)ccc21 (configuration not stated)
[1]
  activity change, negative = inhibition: 8.27%
[2]
  activity change, negative = inhibition: 1.21%
[3]
  activity change, negative = inhibition: 7.06%
[4]
  activity change, negative = inhibition: 5.16%
[5]
  activity change, negative = inhibition: 3.12%

## COc1ccc(OC)c(S(=O)(=O)N2CCC(n3c(C)cnc3-c3ccncc3)CC2)c1
[1]
  activity change, negative = inhibition: 2.22%
[2]
  activity change, negative = inhibition: 0%
[3]
  activity change, negative = inhibition: 8.19%
[4]
  activity change, negative = inhibition: -1.23%
[5]
  activity change, negative = inhibition: 2.61%

## CN(CCN1C(=O)c2cc3sccc3n2CC1(C)C(=O)NC1CCCCCC1)C1CCCCC1 (configuration not stated)
[1]
  activity change, negative = inhibition: 2.22%
[2]
  activity change, negative = inhibition: 0.113%
[3]
  activity change, negative = inhibition: 3.99%
[4]
  activity change, negative = inhibition: 9.44%
[5]
  activity change, negative = inhibition: 1.54%

## COc1cc(CN2CCC(CO)(CN3CCCC3)CC2)ccc1F
[1]
  activity change, negative = inhibition: -0.647%
[2]
  activity change, negative = inhibition: -2.35%
[3]
  activity change, negative = inhibition: -16.1%
[4]
  activity change, negative = inhibition: -1.71%
[5]
  activity change, negative = inhibition: -5.78%

## COc1ccc(-c2n[nH]n3c2nc(=O)c2ccc(C(=O)NCc4ccc(F)cc4)cc23)cc1
[1]
  activity change, negative = inhibition: -2.16%
[2]
  activity change, negative = inhibition: 3.56%
[3]
  activity change, negative = inhibition: 4.3%
[4]
  activity change, negative = inhibition: 1.69%
[5]
  activity change, negative = inhibition: 0.38%

## Nc1nc(Nc2ccc3c(c2)CCC(N2CCCC2)CC3)nn1-c1cc2c(nn1)-c1ccccc1CCC2 (configuration not stated)
[1]
  activity change, negative = inhibition: -4.87%
[3]
  activity change, negative = inhibition: -59.3%

## CCCn1c(=O)c2cc(Cl)ccc2n2c(SCc3ccc(C)cc3)nnc12
[1]
  activity change, negative = inhibition: -6.97%
[2]
  activity change, negative = inhibition: 0%
[3]
  activity change, negative = inhibition: 2.65%
[4]
  activity change, negative = inhibition: -12.3%
[5]
  activity change, negative = inhibition: 1.53%

## CC(C)c1cccc(N2C(=O)c3ccccc3CC2(C)C(=O)NCc2ccccc2)c1 (configuration not stated)
[1]
  activity change, negative = inhibition: 4.49%
[2]
  activity change, negative = inhibition: 0%
[3]
  activity change, negative = inhibition: 6.13%
[4]
  activity change, negative = inhibition: -1.71%
[5]
  activity change, negative = inhibition: 2.85%

## CC(C)=CCC[C@](C)(O[C@@H]1O[C@H](CO[C@@H]2O[C@H](CO)[C@@H](O)[C@H](O)[C@H]2O)[C@@H](O)[C@H](O)[C@H]1O)[C@H]1CC[C@]2(C)[C@@H]1[C@H](O)C[C@@H]1[C@@]3(C)CC[C@H](O[C@@H]4O[C@H](CO)[C@@H](O)[C@H](O)[C@H]4O[C@@H]4O[C@H](CO)[C@@H](O)[C@H](O)[C@H]4O)C(C)(C)[C@@H]3CC[C@]12C
[2]
  activity change, negative = inhibition: 12.4%
[4]
  activity change, negative = inhibition: 1.88%
[5]
  activity change, negative = inhibition: -6.3%

## CC/C=C\CC1C(=O)C=CC1(CCCCCCCC(=O)O)OC(C)=O (configuration not stated)
[1]
  activity change, negative = inhibition: -2.25%
[2]
  activity change, negative = inhibition: 6.49%
[3]
  activity change, negative = inhibition: 5.75%
[4]
  activity change, negative = inhibition: -12.4%
[5]
  activity change, negative = inhibition: 4.57%

## C=CCc1ccccc1OCCN(C)Cc1ccccc1C(=O)O
[1]
  activity change, negative = inhibition: -1.34%
[2]
  activity change, negative = inhibition: -1.76%
[3]
  activity change, negative = inhibition: 3.16%
[4]
  activity change, negative = inhibition: -4.54%
[5]
  activity change, negative = inhibition: -0.669%

## CCOc1ccc(CCNS(=O)(=O)c2cn(C)cn2)cc1OCC
[1]
  activity change, negative = inhibition: -1.9%
[2]
  activity change, negative = inhibition: 0%
[3]
  activity change, negative = inhibition: 4.18%
[4]
  activity change, negative = inhibition: -1.65%
[5]
  activity change, negative = inhibition: 1.49%

## O=c1[nH]cnc2c1ncn2[C@H]1CC[C@@H](CO)O1
[1]
  activity change, negative = inhibition: 1.26%
[2]
  activity change, negative = inhibition: 2.28%
[3]
  activity change, negative = inhibition: 10.1%
[4]
  activity change, negative = inhibition: -13.3%
[5]
  activity change, negative = inhibition: 3.73%

## CNC(=O)c1cc2cc(-c3c(C)noc3C)nc(-c3cccc(OC)c3OC)c2o1
[1]
  activity change, negative = inhibition: -8.79%
[2]
  activity change, negative = inhibition: -9.19%
[3]
  activity change, negative = inhibition: -6.85%
[4]
  activity change, negative = inhibition: -21%
[5]
  activity change, negative = inhibition: -10.3%

## CN1CCN(c2ccc(OC(F)(F)F)c(Nc3ncc4c(n3)-c3c(c(C(N)=O)nn3CCO)CC4)c2)CC1
[1]
  activity change, negative = inhibition: -7.3%
[2]
  activity change, negative = inhibition: -0.027%
[3]
  activity change, negative = inhibition: -2.11%
[4]
  activity change, negative = inhibition: -18.6%
[5]
  activity change, negative = inhibition: 4.95%

## O=C(NCCNC(=O)c1cccc(-c2ccsc2)c1)NC1CCCC1
[1]
  activity change, negative = inhibition: -6.41%
[2]
  activity change, negative = inhibition: -0.578%
[3]
  activity change, negative = inhibition: -0.397%
[4]
  activity change, negative = inhibition: -8.37%
[5]
  activity change, negative = inhibition: -4.24%

## COc1ccc(C)cc1NS(=O)(=O)c1ccc2[nH]c3c(c2c1)CCCC3
[1]
  activity change, negative = inhibition: -2.37%
[2]
  activity change, negative = inhibition: 0.489%
[3]
  activity change, negative = inhibition: -3.91%
[4]
  activity change, negative = inhibition: -12.9%
[5]
  activity change, negative = inhibition: -2.88%

## Fc1ccc([C@@H]2CCNC[C@H]2COc2ccc3c(c2)OCO3)cc1
[1]
  activity change, negative = inhibition: 4.76%
[2]
  activity change, negative = inhibition: 12.4% and 7.08%
[3]
  activity change, negative = inhibition: 10.8%
[4]
  activity change, negative = inhibition: -10.2% and -16.2%
[5]
  activity change, negative = inhibition: 1.76% and 2.74%

## NC(=O)C1CCN(C(=O)CCc2nnc3n(CCc4ccccc4)c(=O)c4ccccc4n23)CC1
[1]
  activity change, negative = inhibition: -6.84%
[2]
  activity change, negative = inhibition: 1.62%
[3]
  activity change, negative = inhibition: 2.81%
[4]
  activity change, negative = inhibition: 7.85%
[5]
  activity change, negative = inhibition: -3.39%

## CCOC(=O)c1cc2n(n1)CC(C)(C(=O)NC1CCCC1)N(c1cc(C)ccc1C)C2=O (configuration not stated)
[1]
  activity change, negative = inhibition: 4.44%
[2]
  activity change, negative = inhibition: 5.03%
[3]
  activity change, negative = inhibition: -5.37%
[4]
  activity change, negative = inhibition: 3.79%
[5]
  activity change, negative = inhibition: 4.35%

## Cc1ccc(C)c(N2CCN(CCCNC(=O)CCc3nnc4n(CC(C)C)c(=O)c5ccccc5n34)CC2)c1
[1]
  activity change, negative = inhibition: -6.66%
[2]
  activity change, negative = inhibition: 3.62%
[3]
  activity change, negative = inhibition: -5.7%
[4]
  activity change, negative = inhibition: -3.28%
[5]
  activity change, negative = inhibition: -1.45%

## CC(=O)c1ccc(Nc2nc3c(S(=O)(=O)c4ccc(C)c(C)c4)nnn3c3ccc(Cl)cc23)cc1
[1]
  activity change, negative = inhibition: -6.88%
[2]
  activity change, negative = inhibition: 3.24%
[3]
  activity change, negative = inhibition: 1.72%
[4]
  activity change, negative = inhibition: -0.727%
[5]
  activity change, negative = inhibition: -4.97%

## CC1CC(C)CN(S(=O)(=O)c2ccc3c(c2)oc(=O)n3CC(=O)NC2CCCCC2)C1 (configuration not stated)
[1]
  activity change, negative = inhibition: -5.63%
[2]
  activity change, negative = inhibition: 0%
[3]
  activity change, negative = inhibition: -5.19%
[4]
  activity change, negative = inhibition: -15.3%
[5]
  activity change, negative = inhibition: -10.1%

## O=C(CSc1nnc2n(Cc3ccccc3)c(=O)c3ccccc3n12)Nc1ccc(Cl)cc1
[1]
  activity change, negative = inhibition: -2.97%
[2]
  activity change, negative = inhibition: 3.41%
[3]
  activity change, negative = inhibition: -1.25%
[4]
  activity change, negative = inhibition: -0.953%
[5]
  activity change, negative = inhibition: -1.87%

## CN1C(=O)c2cc(C(=O)NCCc3cccs3)nn2CC1(C)C(=O)NC1CCCCCC1 (configuration not stated)
[1]
  activity change, negative = inhibition: -1.76%
[2]
  activity change, negative = inhibition: 8.82%
[3]
  activity change, negative = inhibition: -1.79%
[4]
  activity change, negative = inhibition: 1.42%
[5]
  activity change, negative = inhibition: -4.12%

## CC(=O)Nc1c2n(c3ccc(F)cc13)CC(C)(C(=O)NC1CCCC1)N(c1ccc(F)cc1)C2=O (configuration not stated)
[1]
  activity change, negative = inhibition: 1.5%
[2]
  activity change, negative = inhibition: 0%
[3]
  activity change, negative = inhibition: 1.45%
[4]
  activity change, negative = inhibition: 6.2%
[5]
  activity change, negative = inhibition: -4.84%

## Cc1coc2c1C(=O)C(=O)c1c-2ccc2c(C)cccc12
[1]
  activity change, negative = inhibition: -23.8%
[2]
  activity change, negative = inhibition: -6.1%
[3]
  activity change, negative = inhibition: -1.48%
[4]
  activity change, negative = inhibition: -21.8%
[5]
  activity change, negative = inhibition: -13.4%

## CCCN1C(=O)c2c(C(=O)NCc3ccc(OC)cc3)ncn2CC1(C)C(=O)NCc1ccc(F)cc1 (configuration not stated)
[1]
  activity change, negative = inhibition: 2.96%
[2]
  activity change, negative = inhibition: 0%
[3]
  activity change, negative = inhibition: -0.492%
[4]
  activity change, negative = inhibition: 4.67%
[5]
  activity change, negative = inhibition: 6.97%

## O=S(=O)(NC[C@@H]1CCNC[C@H]1O)c1ccc(OC(F)(F)F)cc1
[1]
  activity change, negative = inhibition: -8.83%
[2]
  activity change, negative = inhibition: -7.42%
[3]
  activity change, negative = inhibition: -3.49%
[4]
  activity change, negative = inhibition: -5.81%
[5]
  activity change, negative = inhibition: -3.71%

## Cn1cc(-c2cnn3c(N)c(Br)c(C4CCCNC4)nc23)cn1 (configuration not stated)
[1]
  activity change, negative = inhibition: -10.1%
[3]
  activity change, negative = inhibition: -81.4%
